We go through 30 compounds from patent US11685745B2, “Substituted benzoxazole and benzofuran compounds as PDE7 inhibitors” (Dart NeuroScience, LLC, priority 2017, dated 2023).

The test has as its target N-terminal truncated recombinant human PDE7B enzyme (Homo sapiens (Human), UniProt Q9NP56). The test is described as follows: biochemical.
A word on the IC50: it is the concentration that gives 50% inhibition. On to `CO[C@H]1CC[C@H](NCc2nc3cc(Cl)c4c(c3o2)C2(CCCCC2)NC(=O)N4)CC1` [Example 108, 5-Chloro-2-({[(1R,4R)-4-methoxycyclohexyl]amino}methyl)-7,8-dihydro-6H-spiro[[1,3]oxazolo[5,4-f]quinazoline-9,1′-cyclohexane]-7-one], for which the IC50 is 100 to 1000 nM.
Next, `O=C1Nc2c(Cl)cc3nc(CN4C[C@H]5C[C@@H]4CO5)oc3c2C2(CCCCC2)N1` [Example 109, 5-Chloro-2-[(1R,4R)-2-oxa-5-azabicyclo[2.2.1]heptan-5-ylmethyl]-7,8-dihydro-6H-spiro[[1,3]oxazolo[5,4-f]quinazoline-9,1′-cyclohexane]-7-one]: 10 to 100 nM; `O=C1Nc2c(Cl)cc3nc(CN4C[C@@H]5C[C@H]4CO5)oc3c2C2(CCCCC2)N1` [Example 110, 5-Chloro-2-[(1S,4S)-2-oxa-5-azabicyclo[2.2.1]heptan-5-ylmethyl]-7,8-dihydro-6H-spiro[[1,3]oxazolo[5,4-f]quinazoline-9,1′-cyclohexane]-7-one]: 10 to 100 nM.
For `COC1CCN(Cc2nc3cc(Cl)c4c(c3o2)C2(CCCCC2)NC(=O)N4)CC1` [Example 112, 5-Chloro-2-[(4-methoxypiperidin-1-yl)methyl]-7,8-dihydro-6H-spiro[[1,3]oxazolo[5,4-f]quinazoline-9,1′-cyclohexane]-7-one] the value was 100 to 1000 nM; for `CN(C)C1CCN(Cc2nc3cc(Cl)c4c(c3o2)C2(CCCCC2)NC(=O)N4)CC1` [Example 113, 5-Chloro-2-{[4-(dimethylamino)piperidin-1-yl]methyl}-7,8-dihydro-6H-spiro[[1,3]oxazolo[5,4-f]quinazoline-9,1′-cyclohexane]-7-one], 100 to 1000 nM; for `CN1CC2CN(Cc3nc4cc(Cl)c5c(c4o3)C3(CCCCC3)NC(=O)N5)CC2C1` (stereo not drawn) [Example 114, 5-Chloro-2-({5-methyl-octahydropyrrolo[3,4-c]pyrrol-2-yl}methyl)-7,8-dihydro-6H-spiro[[1,3]oxazolo[5,4-f]quinazoline-9,1′-cyclohexane]-7-one], 100 to 1000 nM.
For `COC[C@H]1CCCN1Cc1nc2cc(Cl)c3c(c2o1)C1(CCCCC1)NC(=O)N3` [Example 115, 5-Chloro-2-{[(2R)-2-(methoxymethyl)pyrrolidin-1-yl]methyl}-7,8-dihydro-6H-spiro[[1,3]oxazolo[5,4-f]quinazoline-9,1′-cyclohexane]-7-one], the IC50 was 10 to 100 nM.
Take `O=C1Nc2c(Cl)cc3nc(CN4CCC(CO)C4)oc3c2C2(CCCCC2)N1` (stereo not drawn) [Example 116, 5-Chloro-2-{[3-(hydroxymethyl)pyrrolidin-1-yl]methyl}-7,8-dihydro-6H-spiro[[1,3]oxazolo[5,4-f]quinazoline-9,1′-cyclohexane]-7-one]: the IC50 was in the range of 10 to 100 nM.
Take `CO[C@@H]1CCCN(Cc2nc3cc(Cl)c4c(c3o2)C2(CCCCC2)NC(=O)N4)C1` [Example 117, 5-Chloro-2-{[(3R)-3-methoxypiperidin-1-yl]methyl}-7,8-dihydro-6H-spiro[[1,3]oxazolo[5,4-f]quinazoline-9,1′-cyclohexane]-7-one]: the IC50 lay in the range of 10 to 100 nM.
Consider `CO[C@H]1CCCN(Cc2nc3cc(Cl)c4c(c3o2)C2(CCCCC2)NC(=O)N4)C1` [Example 118, 5-Chloro-2-{[(3S)-3-methoxypiperidin-1-yl]methyl}-7,8-dihydro-6H-spiro[[1,3]oxazolo[5,4-f]quinazoline-9,1′-cyclohexane]-7-one], for which the IC50 was 10 to 100 nM.
For `CCO[C@@H]1CCN(Cc2nc3cc(Cl)c4c(c3o2)C2(CCCCC2)NC(=O)N4)C1` [Example 119, 5-Chloro-2-{[(3R)-3-ethoxypyrrolidin-1-yl]methyl}-7,8-dihydro-6H-spiro[[1,3]oxazolo[5,4-f]quinazoline-9,1′-cyclohexane]-7-one], the IC50 lay within 10 to 100 nM.
In the case of `CC(C)(O)[C@@H]1CCN(Cc2nc3cc(Cl)c4c(c3o2)C2(CCCCC2)NC(=O)N4)C1` [Example 120, 5-Chloro-2-{[(3R)-3-(2-hydroxypropan-2-yl)pyrrolidin-1-yl]methyl}-7,8-dihydro-6H-spiro[[1,3]oxazolo[5,4-f]quinazoline-9,1′-cyclohexane]-7-one], the IC50 was 100 to 1000 nM.
For `O=C1Nc2c(Cl)cc3nc(CN4CC[C@@H](O)C4)oc3c2C2(CCCCC2)N1` [Example 121, 5-Chloro-2-{[(3R)-3-hydroxypyrrolidin-1-yl]methyl}-7,8-dihydro-6H-spiro[[1,3]oxazolo[5,4-f]quinazoline-9,1′-cyclohexane]-7-one] the value was 10 to 100 nM; for `CN(C)CCN(C)Cc1nc2cc(Cl)c3c(c2o1)C1(CCCCC1)NC(=O)N3` [Example 122, 5-Chloro-2-({[2-(dimethylamino)ethyl](methyl)amino}methyl)-7,8-dihydro-6H-spiro[[1,3]oxazolo[5,4-f]quinazoline-9,1′-cyclohexane]-7-one], 100 to 1000 nM.
For `CN(CCN1CCOCC1)Cc1nc2cc(Cl)c3c(c2o1)C1(CCCCC1)NC(=O)N3` [Example 124, 5-Chloro-2-({methyl[2-(morpholin-4-yl)ethyl]amino}methyl)-7,8-dihydro-6H-spiro[[1,3]oxazolo[5,4-f]quinazoline-9,1′-cyclohexane]-7-one] the value was 10 to 100 nM; for `COC1CCN(Cc2nc3cc(Cl)c4c(c3o2)C2(CCCCC2)NC(=O)N4)C1` (stereo not drawn) [Example 125, 5-Chloro-2-[(3-methoxypyrrolidin-1-yl)methyl]-7,8-dihydro-6H-spiro[[1,3]oxazolo[5,4-f]quinazoline-9,1′-cyclohexane]-7-one], 10 to 100 nM.
For `O=C1Nc2c(Cl)cc3nc(CN4CCN(CC(F)(F)F)CC4)oc3c2C2(CCCCC2)N1` [Example 126, 5-Chloro-2-{[4-(2,2,2-trifluoroethyl)piperazin-1-yl]methyl}-7,8-dihydro-6H-spiro[[1,3]oxazolo[5,4-f]quinazoline-9,1′-cyclohexane]-7-one] the value was 100 to 1000 nM; for `COC(=O)CN(C)Cc1nc2cc(Cl)c3c(c2o1)C1(CCCCC1)NC(=O)N3` [Example 127, Methyl 2-({5-chloro-7-oxo-7,8-dihydro-6H-spiro[[1,3]oxazolo[5,4-f]quinazoline-9,1′-cyclohexane]-2-ylmethyl}(methyl)amino)acetate], 10 to 100 nM.
Turning to `O=C1Nc2c(Cl)cc3nc(CN4CCN5CCC[C@@H]5C4)oc3c2C2(CCCCC2)N1` [Example 128, 2-[(8aR)-octahydropyrrolo[1,2-a]piperazin-2-ylmethyl]-5-chloro-7,8-dihydro-6H-spiro[[1,3]oxazolo[5,4-f]quinazoline-9,1′-cyclohexane]-7-one], the IC50 lay in the range of 10 to 100 nM.
For the compound `CN(Cc1nc2cc(Cl)c3c(c2o1)C1(CCCCC1)NC(=O)N3)C1CCOCC1` [Example 129, 5-Chloro-2-{[methyl(oxan-4-yl)amino]methyl}-7,8-dihydro-6H-spiro[[1,3]oxazolo[5,4-f]quinazoline-9,1′-cyclohexane]-7-one], the IC50 was 10 to 100 nM.
Next, `COC(=O)C1CCCN(Cc2nc3cc(Cl)c4c(c3o2)C2(CCCCC2)NC(=O)N4)C1` (stereo not drawn) [Example 130, Methyl 1-{5-chloro-7-oxo-7,8-dihydro-6H-spiro[[1,3]oxazolo[5,4-f]quinazoline-9,1′-cyclohexane]-2-ylmethyl}piperidine-3-carboxylate]: 10 to 100 nM.
For `COC(=O)CNCc1nc2cc(Cl)c3c(c2o1)C1(CCCCC1)NC(=O)N3` [Example 131, Methyl 2-({5-chloro-7-oxo-7,8-dihydro-6H-spiro[[1,3]oxazolo[5,4-f]quinazoline-9,1′-cyclohexane]-2-ylmethyl}amino)acetate] the value was 10 to 100 nM; for `CO[C@H]1CCN(Cc2nc3cc(Cl)c4c(c3o2)C2(CCCCC2)NC(=O)N4)C1` [Example 132, 5-Chloro-2-{[(3S)-3-methoxypyrrolidin-1-yl]methyl}-7,8-dihydro-6H-spiro[[1,3]oxazolo[5,4-f]quinazoline-9,1′-cyclohexane]-7-one], 10 to 100 nM; for `O=C1Nc2c(Cl)cc3nc(CNC4CCCOC4)oc3c2C2(CCCCC2)N1` (stereo not drawn) [Example 133, 5-Chloro-2-{[(oxan-3-yl)amino]methyl}-7,8-dihydro-6H-spiro[[1,3]oxazolo[5,4-f]quinazoline-9,1′-cyclohexane]-7-one], 10 to 100 nM.
For `CO[C@@H]1CCN(Cc2nc3cc(Cl)c4c(c3o2)C2(CCCCC2)NC(=O)N4)C1` [Example 134, 5-Chloro-2-{[(3R)-3-methoxypyrrolidin-1-yl]methyl}-7,8-dihydro-6H-spiro[[1,3]oxazolo[5,4-f]quinazoline-9,1′-cyclohexane]-7-one] the value was 10 to 100 nM; for `COC[C@H]1CCN(Cc2nc3cc(Cl)c4c(c3o2)C2(CCCCC2)NC(=O)N4)C1` [Example 135, 5-Chloro-2-{[(3S)-3-(methoxymethyl)pyrrolidin-1-yl]methyl}-7,8-dihydro-6H-spiro[[1,3]oxazolo[5,4-f]quinazoline-9,1′-cyclohexane]-7-one], 10 to 100 nM.
Regarding `COC[C@@H]1CCN(Cc2nc3cc(Cl)c4c(c3o2)C2(CCCCC2)NC(=O)N4)C1` [Example 136, 5-Chloro-2-{[(3R)-3-(methoxymethyl)pyrrolidin-1-yl]methyl}-7,8-dihydro-6H-spiro[[1,3]oxazolo[5,4-f]quinazoline-9,1′-cyclohexane]-7-one], the IC50 lay in the range of 10 to 100 nM.
In the case of `COC(=O)[C@@H]1CCCN(Cc2nc3cc(Cl)c4c(c3o2)C2(CCCCC2)NC(=O)N4)C1` [Example 137, Methyl (3R)-1-{5-chloro-7-oxo-7,8-dihydro-6H-spiro[[1,3]oxazolo[5,4-f]quinazoline-9,1′-cyclohexane]-2-ylmethyl}piperidine-3-carboxylate], the IC50 lay within 10 to 100 nM.
For `O=C1Nc2c(Cl)cc3nc(CNCCOC(F)(F)F)oc3c2C2(CCCCC2)N1` [Example 138, 5-Chloro-2-({[2-(trifluoromethoxy)ethyl]amino}methyl)-7,8-dihydro-6H-spiro[[1,3]oxazolo[5,4-f]quinazoline-9,1′-cyclohexane]-7-one] the value was 10 to 100 nM.
Next, `CCN1CCN(Cc2nc3cc(Cl)c4c(c3o2)C2(CCCCC2)NC(=O)N4)CC1` [Example 139, 5-Chloro-2-[(4-ethylpiperazin-1-yl)methyl]-7,8-dihydro-6H-spiro[[1,3]oxazolo[5,4-f]quinazoline-9,1′-cyclohexane]-7-one]: 100 to 1000 nM.
